Measurements as given in the supplement of paper PMC11417369.
± gives the standard deviation of the averaged measurements. This is one part of the list.

What follows are sequences tested on PfAP2-LT AP2 domain (GST-tagged) (assay: gcPBM binding intensity (ln(normalized median fluorescence intensity)); higher = stronger DNA binding).
Summary of the method: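 Using an Agilent 4 × 180k array, primer-extended double-stranded 36-bp intergenic genomic probes and negative controls were exposed for 1 h to GST-fused P. falciparum DNA-binding domains expressed in E. coli. Binding was carried out in 1× PBS with 1% milk, 0.2 mg/ml BSA, 0.5% salmon testes DNA and 0.03% Triton X-100, and protein was detected with Alexa488 anti-GST antibody and a 488 nm scan. Binding intensity is the highest Masliner-normalised natural-log median intensity across replicate spots of either probe orientation.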

Row | Sequence | gcPBM binding intensity (ln)
1 | TTACAGATATTTATCTGTACATATATTTAAAAATAT [XGTACX_site7431] | 8.49 ± 0.45
2 | AAAAGTAAAAAAAAAAAAAGTAAAAAAAAAAAAAAA [CACACA_negctrl_site389] | 8.32 ± 0.54
3 | TCTTATCATTTTAAATCACACACATATATATATATA [CACACA_site8925] | 9.23 ± 0.2
4 | TTTTTAAATTCTTTAATATGTTTTATATATCAAAAT [CACACA_negctrl_site75] | 8.21 ± 0.52
5 | TTTATATATATAAATATGTAGATAACAATATTCTGA [TGCATGCA_negctrl_site554] | 8.3 ± 0.41
6 | ATACATAAATTTTGTACACACAAAAAAAAAAAAGCT [CACACA_site1351] | 9.15 ± 0.43
7 | TTATTCCTTTTCCTTTTTTTTTTTTAACCAAAAAAA [CACACA_negctrl_site309] | 8.22 ± 0.47
8 | AAAATATACATATATGCATGCATATAAATAAAAAAA [TGCATGCA_site812] | 9.05 ± 0.33
9 | TATATATATTTATGCACACAAAATATATTATAGAAT [CACACA_site3740] | 8.89 ± 0.28
10 | AATGTTTATTTTGTTTGTACATAAAATGAATAAAAT [XGTACX_site1456] | 8.46 ± 0.48
11 | GTTATATATTTTTATGCATGCATTTTTAAATATATA [TGCATGCA_site175] | 9.01 ± 0.3
12 | GTTTTTTTGTTTTAAAGTACTTAAAAAAAAAATATA [XGTACX_site6998] | 8.2 ± 0.33
13 | GATAAAACGTTATGCACACGTACGTGAGTATTTATA [CACACA_site1570] | 9.18 ± 0.38
14 | AATGATAAATAAAAAGCATGCAACAAATAAAAATAA [TGCATGCA_site453] | 9.23 ± 0.56
15 | AACAAAACTTTGGATACATGCAAAATTTTTAAATGA [TGCATGCA_site249] | 8.65 ± 0.5
16 | TTACAAAATAAGAGGCACAAACACAAAAAAAAATAA [CACACA_negctrl_site574] | 8.83 ± 0.45
17 | AAAAAAAAAAGACACACACACAAAAAAAGATATATA [CACACA_site6645] | 9.9 ± 0.38
18 | TAGAATAAGATAGATATACACACCATTATAAATATA [CACACA_site2500] | 8.98 ± 0.52
19 | TGTAAAAAATTTAACACACACATATATATATATATA [CACACA_site2585] | 9.81 ± 0.2
20 | ATTACAATATATACGTGTACATATTACCACCGCTAC [XGTACX_site2308] | 9.09 ± 0.42
21 | ATAAAAATATTACGCACACACAAACTTATTCATTAT [CACACA_site1969] | 9.49 ± 0.28
22 | TTGTTCAAACAAAAAATAAAATAATTGAAAATAAAA [CACACA_negctrl_site812] | 8.46 ± 0.59

Row | Sequence | gcPBM binding intensity (ln)
23 | GTAACTTTATTATACTGTACTATTATATAAGCACAC [XGTACX_site2859] | 9.09 ± 0.3
24 | AGTTGTTACGAACATACACACGAACATAGACACGGA [CACACA_site8102] | 9.24 ± 0.39
25 | AAAAAAAAATATATAAACACACATATTTATATACAC [GTGCAC_negctrl_site545] | 8.94 ± 0.38
26 | TTATTTAAATAATATGTACACACATTTAAAAAATTA [CACACA_site8912] | 8.48 ± 0.46
27 | ATGAGTGTAATAATATGTACATAACCTACATAATTT [XGTACX_site852] | 8.94 ± 0.45
28 | CACGCACAGATATATACACACTTTTATTTAAATAAC [CACACA_site6852] | 9.01 ± 0.4
29 | GGATGCACACAAAAGGGTACATAAGAAAAAAACAGG [XGTACX_site8570] | 9.21 ± 0.57
30 | AAAAATAAAATGGACACACACGTTCAAATTTAGATT [CACACA_site5186] | 9.19 ± 0.35
31 | TTCACTAATAAATACGCACACATATACAGATATATA [CACACA_site4887] | 9.04 ± 0.27
32 | AAATATATATATAGTTGTACATATATCGTATATATT [XGTACX_site7867] | 8.94 ± 0.29
33 | ATTCTACACAGACATACACACATATATATATATATA [CACACA_site5826] | 9.835 ± 0.078
34 | AAAAAAAATTATTATGAACACACATTTATTATATTC [CACACA_site8443] | 8.66 ± 0.46
35 | TAATATGATCTTAATAGTACTTTATTAATAATAACC [XGTACX_site1953] | 8.45 ± 0.44
36 | TATATATGTTTATGTAGTACTATATATCCCTTTCTT [XGTACX_site7049] | 8.93 ± 0.57
37 | TATTGATTATTTGAATGTACTTATTATATTAAATAT [XGTACX_site1304] | 8.48 ± 0.61
38 | GCACACATATAATAATGTACATATATATATTTAAAA [XGTACX_site4561] | 9.13 ± 0.45
39 | ACACGCACATATATATAAATATATATATATATAAAT [CACACA_negctrl_site1781] | 9.6 ± 0.28
40 | AATAAAAATATTTTTACATGCAAATGTTATATATTT [TGCATGCA_site1056] | 8.61 ± 0.46
41 | TTTAAGCAAAAACACACACACATATATATATATATA [CACACA_site349] | 10.1 ± 0.16
42 | TATAAATATATATACACACACATATATATTATATAT [CACACA_site596] | 9.27 ± 0.21
43 | AAAAAATGATAATATACACACTTATGGGAGAGCGCA [CACACA_site5398] | 9.03 ± 0.42
44 | ATTATGTTTCTTTTTTTTTTTAAAGGATGTCTTTTT [CACACA_negctrl_site974] | 8.62 ± 0.56
